The other results are listed elsewhere or left out. The list includes weakly bound sequences.

This experiment deals with T1, MBP-FoxP3dN (UniProt Q99JB6).
T1 sequence: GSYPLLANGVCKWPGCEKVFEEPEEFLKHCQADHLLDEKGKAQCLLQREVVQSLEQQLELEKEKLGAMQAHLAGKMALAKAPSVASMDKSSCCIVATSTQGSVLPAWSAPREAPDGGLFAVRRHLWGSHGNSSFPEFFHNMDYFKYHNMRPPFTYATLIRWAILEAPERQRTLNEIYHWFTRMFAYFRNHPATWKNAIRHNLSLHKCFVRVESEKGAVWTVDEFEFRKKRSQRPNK
The experiment is described as follows: PD-seq (MBP pull-down with sequencing). As to conditions: 20 mM Tris-HCl pH 7.5, 100 mM NaCl, 1.5 mM MgCl2, 0.4 uM protein, 0.1 uM dsDNA library, 30 min, room temperature, amylose pull-down; high values mean tight binding; double strand, one strand shown.
For “GATGATTGTTCTCCCAGCTGATGAATTGCGGAGTTCGAGTAAACAAATTTTCCTAATCTTTCTGTTCAAGCGCCATCTAC”, the binding signal (RPM ratio (pull-down/input)) worked out at 0.777. “GATGATTGTTCTCCCAGCTGATGAATTGCGCATGTCGAGTAAACAAATTTTCCTAATCTTTCTGTTCAAGCGCCATCTAC”: the binding signal (RPM ratio (pull-down/input)) amounted to 6.5. The figure for “GATGATTGTTCTCCCAGCTGATGAATTTTACTTCTCGAGTAAACAAATTTTCCTAATCTTTCTGTTCAAGCGCCATCTAC” is 0.389; for “GATGATTGTTCTCCCAGCTGATGAATTAGATGCCTCGAGTAAACAAATTTTCCTAATCTTTCTGTTCAAGCGCCATCTAC” it is 1.97; for “GATGATTGTTCTCCCAGCTGATGAATTCTACGGCTCGAGTAAACAAATTTTCCTAATCTTTCTGTTCAAGCGCCATCTAC” it is 0.251. The figure for “GATGATTGTTCTCCCAGCTGATGAATTGCTCTTGTCGAGTAAACAAATTTTCCTAATCTTTCTGTTCAAGCGCCATCTAC” is 0.594; for “GATGATTGTTCTCCCAGCTGATGAATTGAAGGGATCGAGTAAACAAATTTTCCTAATCTTTCTGTTCAAGCGCCATCTAC” it is 0.265. Under “GATGATTGTTCTCCCAGCTGATGAATTGTCAAAGTCGAGTAAACAAATTTTCCTAATCTTTCTGTTCAAGCGCCATCTAC” stands 0.23; under “GATGATTGTTCTCCCAGCTGATGAATTGGCGGTTTCGAGTAAACAAATTTTCCTAATCTTTCTGTTCAAGCGCCATCTAC”, 0.642. On to “GATGATTGTTCTCCCAGCTGATGAATTGTTTACATCGAGTAAACAAATTTTCCTAATCTTTCTGTTCAAGCGCCATCTAC”, for which the binding signal (RPM ratio (pull-down/input)) was found to be 8.09. Under “GATGATTGTTCTCCCAGCTGATGAATTGTGCAGTTCGAGTAAACAAATTTTCCTAATCTTTCTGTTCAAGCGCCATCTAC” stands 2.67. Under “GATGATTGTTCTCCCAGCTGATGAATTCCAGTGATCGAGTAAACAAATTTTCCTAATCTTTCTGTTCAAGCGCCATCTAC” stands 0.436; under “GATGATTGTTCTCCCAGCTGATGAATTGGTCCTTTCGAGTAAACAAATTTTCCTAATCTTTCTGTTCAAGCGCCATCTAC”, 0.372. As for “GATGATTGTTCTCCCAGCTGATGAATTTATGCTGTCGAGTAAACAAATTTTCCTAATCTTTCTGTTCAAGCGCCATCTAC”, the binding signal (RPM ratio (pull-down/input)) turned out to be 1.5. The figure for “GATGATTGTTCTCCCAGCTGATGAATTAGACCGTTCGAGTAAACAAATTTTCCTAATCTTTCTGTTCAAGCGCCATCTAC” is 0.354; for “GATGATTGTTCTCCCAGCTGATGAATTTACACCCTCGAGTAAACAAATTTTCCTAATCTTTCTGTTCAAGCGCCATCTAC” it is 0.624. The figure for “GATGATTGTTCTCCCAGCTGATGAATTGGGTATTTCGAGTAAACAAATTTTCCTAATCTTTCTGTTCAAGCGCCATCTAC” is 1.57; for “GATGATTGTTCTCCCAGCTGATGAATTCACCACGTCGAGTAAACAAATTTTCCTAATCTTTCTGTTCAAGCGCCATCTAC” it is 0.313; for “GATGATTGTTCTCCCAGCTGATGAATTCACCTCTTCGAGTAAACAAATTTTCCTAATCTTTCTGTTCAAGCGCCATCTAC” it is 0.33. In the case of “GATGATTGTTCTCCCAGCTGATGAATTTTAGCTTTCGAGTAAACAAATTTTCCTAATCTTTCTGTTCAAGCGCCATCTAC”, the binding signal (RPM ratio (pull-down/input)) came out at 0.989. The figure for “GATGATTGTTCTCCCAGCTGATGAATTTGTAGCCTCGAGTAAACAAATTTTCCTAATCTTTCTGTTCAAGCGCCATCTAC” is 4.2. Under “GATGATTGTTCTCCCAGCTGATGAATTTGGGCCTTCGAGTAAACAAATTTTCCTAATCTTTCTGTTCAAGCGCCATCTAC” stands 1.67; under “GATGATTGTTCTCCCAGCTGATGAATTATCGAAGTCGAGTAAACAAATTTTCCTAATCTTTCTGTTCAAGCGCCATCTAC”, 0.238.

“GATGATTGTTCTCCCAGCTGATGAATTCAGCATATCGAGTAAACAAATTTTCCTAATCTTTCTGTTCAAGCGCCATCTAC”: the binding signal (RPM ratio (pull-down/input)) stood at 2.27. In the case of “GATGATTGTTCTCCCAGCTGATGAATTTGTCCTGTCGAGTAAACAAATTTTCCTAATCTTTCTGTTCAAGCGCCATCTAC”, the binding signal (RPM ratio (pull-down/input)) worked out at 3.03. The figure for “GATGATTGTTCTCCCAGCTGATGAATTCCTTTAGTCGAGTAAACAAATTTTCCTAATCTTTCTGTTCAAGCGCCATCTAC” is 0.332. On to “GATGATTGTTCTCCCAGCTGATGAATTAGCGAGATCGAGTAAACAAATTTTCCTAATCTTTCTGTTCAAGCGCCATCTAC”, for which the binding signal (RPM ratio (pull-down/input)) turned out to be 0.318. Under “GATGATTGTTCTCCCAGCTGATGAATTCCTAACGTCGAGTAAACAAATTTTCCTAATCTTTCTGTTCAAGCGCCATCTAC” stands 0.305; under “GATGATTGTTCTCCCAGCTGATGAATTCTGAGTCTCGAGTAAACAAATTTTCCTAATCTTTCTGTTCAAGCGCCATCTAC”, 1.61. For the sequence “GATGATTGTTCTCCCAGCTGATGAATTGCCGTCTTCGAGTAAACAAATTTTCCTAATCTTTCTGTTCAAGCGCCATCTAC”, the binding signal (RPM ratio (pull-down/input)) is 0.729.

On to “GATGATTGTTCTCCCAGCTGATGAATTAACTCACTCGAGTAAACAAATTTTCCTAATCTTTCTGTTCAAGCGCCATCTAC”, for which the binding signal (RPM ratio (pull-down/input)) was 0.382.

Regarding “GATGATTGTTCTCCCAGCTGATGAATTAGTGCCATCGAGTAAACAAATTTTCCTAATCTTTCTGTTCAAGCGCCATCTAC”, the binding signal (RPM ratio (pull-down/input)) worked out at 3.

Regarding “GATGATTGTTCTCCCAGCTGATGAATTTTCTCTATCGAGTAAACAAATTTTCCTAATCTTTCTGTTCAAGCGCCATCTAC”, the binding signal (RPM ratio (pull-down/input)) came to 0.249. The figure for “GATGATTGTTCTCCCAGCTGATGAATTGACTCTATCGAGTAAACAAATTTTCCTAATCTTTCTGTTCAAGCGCCATCTAC” is 0.474; for “GATGATTGTTCTCCCAGCTGATGAATTACTACGCTCGAGTAAACAAATTTTCCTAATCTTTCTGTTCAAGCGCCATCTAC” it is 0.334; for “GATGATTGTTCTCCCAGCTGATGAATTGTTTCTATCGAGTAAACAAATTTTCCTAATCTTTCTGTTCAAGCGCCATCTAC” it is 1.25. Under “GATGATTGTTCTCCCAGCTGATGAATTTGTGCCTTCGAGTAAACAAATTTTCCTAATCTTTCTGTTCAAGCGCCATCTAC” stands 4.02; under “GATGATTGTTCTCCCAGCTGATGAATTATCTACCTCGAGTAAACAAATTTTCCTAATCTTTCTGTTCAAGCGCCATCTAC”, 0.317; under “GATGATTGTTCTCCCAGCTGATGAATTGTTGTCCTCGAGTAAACAAATTTTCCTAATCTTTCTGTTCAAGCGCCATCTAC”, 5.63. For the sequence “GATGATTGTTCTCCCAGCTGATGAATTACCCGATTCGAGTAAACAAATTTTCCTAATCTTTCTGTTCAAGCGCCATCTAC”, the binding signal (RPM ratio (pull-down/input)) turned out to be 0.248. Turning to “GATGATTGTTCTCCCAGCTGATGAATTGCCCCTTTCGAGTAAACAAATTTTCCTAATCTTTCTGTTCAAGCGCCATCTAC”, the binding signal (RPM ratio (pull-down/input)) stood at 0.522. As for “GATGATTGTTCTCCCAGCTGATGAATTCCCGTGATCGAGTAAACAAATTTTCCTAATCTTTCTGTTCAAGCGCCATCTAC”, the binding signal (RPM ratio (pull-down/input)) was 0.351.

“GATGATTGTTCTCCCAGCTGATGAATTTTTACAATCGAGTAAACAAATTTTCCTAATCTTTCTGTTCAAGCGCCATCTAC”: the binding signal (RPM ratio (pull-down/input)) was determined as 0.466. Under “GATGATTGTTCTCCCAGCTGATGAATTATCTGCATCGAGTAAACAAATTTTCCTAATCTTTCTGTTCAAGCGCCATCTAC” stands 1.07. For “GATGATTGTTCTCCCAGCTGATGAATTGCCGTTGTCGAGTAAACAAATTTTCCTAATCTTTCTGTTCAAGCGCCATCTAC”, the binding signal (RPM ratio (pull-down/input)) came to 1.03. The figure for “GATGATTGTTCTCCCAGCTGATGAATTGGGATGGTCGAGTAAACAAATTTTCCTAATCTTTCTGTTCAAGCGCCATCTAC” is 0.427; for “GATGATTGTTCTCCCAGCTGATGAATTAGGGCTTTCGAGTAAACAAATTTTCCTAATCTTTCTGTTCAAGCGCCATCTAC” it is 0.869; for “GATGATTGTTCTCCCAGCTGATGAATTGCGCTCATCGAGTAAACAAATTTTCCTAATCTTTCTGTTCAAGCGCCATCTAC” it is 1.24. Under “GATGATTGTTCTCCCAGCTGATGAATTTCATGTTTCGAGTAAACAAATTTTCCTAATCTTTCTGTTCAAGCGCCATCTAC” stands 0.918; under “GATGATTGTTCTCCCAGCTGATGAATTACACCCCTCGAGTAAACAAATTTTCCTAATCTTTCTGTTCAAGCGCCATCTAC”, 0.481; under “GATGATTGTTCTCCCAGCTGATGAATTAAAGTTCTCGAGTAAACAAATTTTCCTAATCTTTCTGTTCAAGCGCCATCTAC”, 0.515. Under “GATGATTGTTCTCCCAGCTGATGAATTAGTTTAGTCGAGTAAACAAATTTTCCTAATCTTTCTGTTCAAGCGCCATCTAC” stands 3.51; under “GATGATTGTTCTCCCAGCTGATGAATTCGTACAATCGAGTAAACAAATTTTCCTAATCTTTCTGTTCAAGCGCCATCTAC”, 0.39; under “GATGATTGTTCTCCCAGCTGATGAATTCGCAGCTTCGAGTAAACAAATTTTCCTAATCTTTCTGTTCAAGCGCCATCTAC”, 0.653.

Regarding “GATGATTGTTCTCCCAGCTGATGAATTCGGGGAGTCGAGTAAACAAATTTTCCTAATCTTTCTGTTCAAGCGCCATCTAC”, the binding signal (RPM ratio (pull-down/input)) was determined as 0.343. Under “GATGATTGTTCTCCCAGCTGATGAATTCGGGTTATCGAGTAAACAAATTTTCCTAATCTTTCTGTTCAAGCGCCATCTAC” stands 0.667; under “GATGATTGTTCTCCCAGCTGATGAATTCTGGTCTTCGAGTAAACAAATTTTCCTAATCTTTCTGTTCAAGCGCCATCTAC”, 0.442; under “GATGATTGTTCTCCCAGCTGATGAATTTGTCAAATCGAGTAAACAAATTTTCCTAATCTTTCTGTTCAAGCGCCATCTAC”, 0.511. Under “GATGATTGTTCTCCCAGCTGATGAATTAGTACTGTCGAGTAAACAAATTTTCCTAATCTTTCTGTTCAAGCGCCATCTAC” stands 0.836; under “GATGATTGTTCTCCCAGCTGATGAATTCGTGAATTCGAGTAAACAAATTTTCCTAATCTTTCTGTTCAAGCGCCATCTAC”, 0.701. On to “GATGATTGTTCTCCCAGCTGATGAATTCAATCTGTCGAGTAAACAAATTTTCCTAATCTTTCTGTTCAAGCGCCATCTAC”, for which the binding signal (RPM ratio (pull-down/input)) is 0.338. The figure for “GATGATTGTTCTCCCAGCTGATGAATTGCGTCATTCGAGTAAACAAATTTTCCTAATCTTTCTGTTCAAGCGCCATCTAC” is 2.09. Under “GATGATTGTTCTCCCAGCTGATGAATTGCTATACTCGAGTAAACAAATTTTCCTAATCTTTCTGTTCAAGCGCCATCTAC” stands 0.737.

Values taken from paper PMC12820563.
